# Source: PubChem BioAssay AID2100 (National Center for Advancing Translational Sciences (NCATS), 2009)
# Hit rate of the full screen: of about 300,000 compounds, about 1,200 (0.4%) were called active. This list was built around the results that the source calls inconclusive (neither active nor inactive); the mix of calls is not that of the screen. Calls come from the whole dose curve; as a rule, active = well fitted inhibition curve with a large enough effect; inconclusive = small, poorly fitted or top-dose-only effect, or another doubt; inactive = no such curve, though single readings can be large or run the other way. Potencies of inconclusive entries are doubtful fits and often do not repeat.
# Molecular target: Lysosomal alpha-glucosidase (Homo sapiens) (UniProt P10253)
# Experiment: qHTS Assay for Inhibitors and Activators of Human alpha-Glucosidase Cleavage of Glycogen;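 for activity change, negative = inhibition: 0% = full enzyme reaction and -100% = no-enzyme basal signal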
# Conditions: recombinant GAA, glycogen substrate, Amplex Red glucose oxidase fluorescence; activity change, negative = inhibition: at 76.4 µM (top of the series) unless noted
# Method in brief: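 Natural-substrate format: glycogen cleavage by 4 nM human enzyme, glucose read by Amplex Red coupling (Ex 573, Em 610 nm). Normalized to enzyme and no-enzyme controls.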
# Potency is the fitted concentration of half-maximal effect.
Structure (SMILES),Potency,"activity change, negative = inhibition"
CC1(C)C2([N+](=O)[O-])CN3CC1([N+](=O)[O-])CN(C2)C3c1ccc(O)c(O)c1 (stereo not given),"inconclusive: 11.2 µM [inhibitor, partial curve]",
Clc1ccc(C2Nc3cccc4cccc(c34)N2)cc1Cl,"inconclusive: 39.8 µM [activator, single point]",
Cc1ccccc1NC(=O)CSc1nc2c(oc3ccccc32)c(=O)n1Cc1ccco1,,inactive: -4.41% [at 76.3 µM]
N#C/C(=N\Nc1c(Cl)cccc1Cl)C(=O)NN,"inconclusive: 19.8 µM [inhibitor, partial curve]",
Cc1ccc(NC(=S)NNC(=O)c2nn(C)cc2Cl)cc1,active: 14.1 µM,
CCOc1ccc(NC(=S)NN(C)C(=S)Nc2ccc(OCC)cc2)cc1,"inconclusive: 4.43 µM [inhibitor, single point]",
Cc1[nH]c(=O)c(C(=O)c2cc(Cl)ccc2O)cc1C(=O)O,"inconclusive: 44.7 µM [activator, partial curve, poor fit]",
COc1ccc(OC)c(C2CC(=O)C3=C(C2)NC(=O)CC3c2ccc(O)c(OC)c2)c1 (stereo not given),"inconclusive: 19.8 µM [inhibitor, partial curve]",
CCC1(C)Cc2ccccc2-c2[nH][nH]c(=O)c21 (stereo not given),"inconclusive: 17.8 µM [inhibitor, partial curve]",
CC(=O)c1ccc(N(C)C)c2c(N(C)C)cccc12,"inconclusive: 31.6 µM [inhibitor, partial curve]",
NC(=O)c1ccc(NC(=O)C2CCCC2)cc1,"inconclusive: 11.2 µM [inhibitor, single point]",
C/C(=N\Nc1ccccc1)c1c(O)cc(C)oc1=O,"inconclusive: 15.8 µM [inhibitor, partial curve]",
O=C(/C=C/c1ccco1)NC(=S)Nc1ccccc1N1CCCC1,"inconclusive: 28.2 µM [inhibitor, partial curve]",
CCOc1cc(/C=N\NC(=O)c2c(C)nc3ccccn23)ccc1O,"inconclusive: 56.2 µM [inhibitor, partial curve]",
Cc1ccc(O)c(NC(=O)c2cc(-c3ccco3)on2)c1,"inconclusive: 10 µM [inhibitor, full curve, poor fit]",
COc1cccc(C(=O)Nc2ccc3nc(N4CCOCC4)cc(C)c3c2)c1,,inactive: -2.94%
COC(=O)c1ccccc1NC(=O)CSc1n[nH]c(CC(C)C)n1,"inconclusive: 11.2 µM [inhibitor, single point]",
COc1cc(/C=N/N2CCOCC2)ccc1OCc1ccccc1,"inconclusive: 50.1 µM [inhibitor, single point]",
O=C(Nc1cccs1)N1CCN(c2ncccn2)CC1,"inconclusive: 50.1 µM [inhibitor, single point]",
COc1ccc(NCc2ccc([N+](=O)[O-])s2)cc1,"inconclusive: 39.5 µM [inhibitor, partial curve, poor fit]",
COc1cc2c(c(OC)c1O)C(=O)CO2,"inconclusive: 7.88 µM [inhibitor, full curve]",
Cc1cc2cc(C(c3nnnn3Cc3ccccc3)N3CCc4ccccc43)c(=O)[nH]c2cc1C (stereo not given),,inactive: -6.99%
CC(=O)c1ccc2c3c(ccc(O)c13)CC2,active: 31.4 µM,
N#C/C(N)=C(/C#N)N=Cc1cccc(Cl)c1,"inconclusive: 35.5 µM [inhibitor, partial curve]",

Structure (SMILES),Potency,"activity change, negative = inhibition"
CS(=O)(=O)N1CCc2cc(C(=O)Nc3ccc(O)cc3)ccc21,"inconclusive: 35.5 µM [inhibitor, single point]",
COc1ccc(OC)c(S(=O)(=O)NCc2cn3ccsc3n2)c1,,inactive: 13%
CCOc1ccc(-c2nc(C#N)c(NCC(C)C)o2)cc1,"inconclusive: 35.5 µM [inhibitor, partial curve]",
COCCCNC(=S)N/N=C/c1ccc(N(C)C)cc1Cl,"inconclusive: 3.52 µM [inhibitor, full curve]",
Cc1ccc(Oc2ccc(Cl)cc2N)cc1,,inactive: 2.75%
Cc1ccc(-c2c(C(=O)N/N=C/C3CC=CCC3)nnn2-c2nonc2N)cc1 (stereo not given),"inconclusive: 35.5 µM [inhibitor, partial curve]",
CC(C)c1ccccc1NC(=S)NN(Cc1ccccc1)c1ccccc1,"inconclusive: 22.2 µM [inhibitor, partial curve]",
CCOc1c(Br)cc(CNc2ccc(N3CCOCC3)cc2)cc1OC,active: 35.5 µM,
CN(C)CCCNc1oc(-c2ccccc2)nc1C#N,"inconclusive: 35.5 µM [inhibitor, partial curve]",
COC(=O)c1cc(-c2ccccc2)sc1N,"inconclusive: 15.8 µM [inhibitor, single point]",
Oc1ccc(Br)cc1-c1nc2cnccn2c1NC1CCCCC1,"inconclusive: 14 µM [inhibitor, partial curve]",
Cc1cc(C(F)(F)F)nn1CC(=O)NNC(=S)Nc1ccc(Cl)cc1,,inactive: -4.79%
Nc1c(S(=O)(=O)c2cccc(Cl)c2)c2nc3ccccc3nc2n1/N=C/c1ccc(O)c(O)c1,"inconclusive: 17.8 µM [inhibitor, partial curve]",
O=C1OCC(CO)(CO)N=C1NNc1ccccc1Cl,active: 28.2 µM,
CCn1c(C)nc2cc(C(=O)NNC(=S)Nc3ccc(C)cc3)ccc21,"inconclusive: 31.6 µM [inhibitor, partial curve]",
c1ccc(Nc2ccc3c4c(cccc24)CC3)cc1,"inconclusive: 31.6 µM [inhibitor, partial curve]",
COc1ccccc1/C=C/c1nc(C#N)c(NCc2ccccc2)o1,"inconclusive: 20 µM [inhibitor, partial curve]",
COc1cc(NC(C)=O)c2ncccc2c1[N+](=O)[O-],,inactive: -1.83%
Cn1c(SCCCC(=O)c2ccc(F)cc2)nnc1-c1ccncc1,,inactive: 10%
CN1CCCc2cc(C=O)ccc21,"inconclusive: 39.5 µM [activator, single point]",
COCCSc1nc(N)c2c3c(sc2n1)CN(C)CC3,"inconclusive: 28.2 µM [activator, partial curve]",
Cc1ccn2c(Nc3ccccc3)c(-c3c[nH]c4ccccc34)nc2c1,"inconclusive: 3.55 µM [inhibitor, full curve]",
Cc1ccc(-n2c(N)c(C(=O)N3CCN(C)CC3)sc2=S)cc1,,inactive: -8.54%
CC(C)CC1NC(=S)N(Cc2ccccc2)C1=O (stereo not given),"inconclusive: 50.1 µM [inhibitor, single point]",

Structure (SMILES),Potency,"activity change, negative = inhibition"
COc1cccc(=O)c2c(C)n(CC(=O)c3ccccc3)c(C)c12,"inconclusive: 39.5 µM [activator, single point]",
Nc1ccc(-n2cc(-c3ccccc3)[nH]c2=S)cc1,"inconclusive: 35.5 µM [inhibitor, single point]",
O=C(O)C1OC(Oc2c(-c3ccc(O)c(O)c3)oc3cc(O)cc(O)c3c2=O)C(O)C(O)C1O (stereo not given),active: 3.98 µM,
CC1(C)Cc2c(C#N)c(NC3CCCCC3)nc(-c3ccco3)c2CO1,,inactive: 1.01%
Cc1ccc(S(=O)(=O)Nc2ccc(Nc3ccccc3)cc2)cc1,"inconclusive: 50.1 µM [inhibitor, single point]",
CC1=C(C(=O)Nc2ccccc2)C(c2cccnc2)n2nc(-c3cccnc3)nc2N1 (stereo not given),"inconclusive: 19.8 µM [inhibitor, partial curve]",
COc1cc2c(cc1OC)CN(C(=O)c1ccc(OC)c(S(=O)(=O)N3CCOCC3)c1)CC2,,inconclusive: 31.3% [activator]
Nc1c(Cl)ncnc1N/N=C/c1cccc(O)c1,"inconclusive: 12.6 µM [inhibitor, partial curve]",
O=C(CSc1cn(CCNC(=O)c2c(F)cccc2F)c2ccccc12)Nc1ccccc1F,,inactive: 9.66% [at 76.3 µM]
Cc1ccc(C2NC(=O)c3c(sc4c3CCN(C)C4)N2)s1 (stereo not given),"inconclusive: 22.2 µM [activator, partial curve]",
Cc1ccc2nc(-c3ccco3)c(Nc3ccc4c(c3)OCCO4)n2c1,"inconclusive: 3.98 µM [inhibitor, full curve]",
CN(C)c1ccc(CNn2cnnc2SCc2ccc(F)cc2)cc1,"inconclusive: 22.4 µM [inhibitor, single point]",
Cc1[nH]nc(NNC(=O)c2ccccc2)c1[N+](=O)[O-],"inconclusive: 10 µM [inhibitor, partial curve]",
O=C(c1ccc([N+](=O)[O-])cc1)N1c2ncnn2C2(CCCCC2)[C@@H]2CCCC[C@@H]21,,inactive: 4.13% [at 76.3 µM]
COc1ccccc1NC(=S)NNC(=O)c1ccncc1,"inconclusive: 50.1 µM [inhibitor, single point]",
Cc1ccc(P(=O)(CO)c2ccc(C)cc2)cc1,"inconclusive: 39.5 µM [inhibitor, single point]",
N#Cc1ccccc1NC(=O)CSC1=Nc2ccccc2C2CC=NN12 (stereo not given),"inconclusive: 35.5 µM [activator, partial curve]",
CC(=O)NNc1nc(-c2ccc(NC(C)=O)cc2)cs1,"inconclusive: 11.2 µM [inhibitor, single point]",
Cc1ccc2nc(-c3c[nH]c4ccccc34)c(Nc3ccc(F)cc3)n2c1,"inconclusive: 22.4 µM [inhibitor, partial curve]",
Cc1onc(-c2ccc(Cl)cc2Cl)c1-c1csc(N/N=C/c2ccccc2Cl)n1,"inconclusive: 50.1 µM [inhibitor, single point]",
Cc1cccn2c(Nc3ccccc3)c(-c3ccccn3)nc12,"inconclusive: 14.1 µM [inhibitor, partial curve]",
Cc1ccn2c(NC3CCCC3)c(-c3ccccn3)nc2c1,"inconclusive: 3.52 µM [inhibitor, single point]",
